Results on 2 molecules are retold here after patent US11779649B2, “Antibodies to PMEL17 and conjugates thereof” (Novartis AG, priority 2018, dated 2023).

Broadly, the EC50 is the concentration at which the effect is half-maximal.

Common to all, as to type: binding
One assay concerns the target T1, human PMEL17 (Homo sapiens, UniProt P40967).
T1 construct: G-361 melanoma cell line expresses human PMEL17 at a lower level compared to the HKB11-human PMEL17 overexpressing cell line; endogenous in cells; host or cells: G-361 (human melanoma)
T1 sequence (P40967 25-661): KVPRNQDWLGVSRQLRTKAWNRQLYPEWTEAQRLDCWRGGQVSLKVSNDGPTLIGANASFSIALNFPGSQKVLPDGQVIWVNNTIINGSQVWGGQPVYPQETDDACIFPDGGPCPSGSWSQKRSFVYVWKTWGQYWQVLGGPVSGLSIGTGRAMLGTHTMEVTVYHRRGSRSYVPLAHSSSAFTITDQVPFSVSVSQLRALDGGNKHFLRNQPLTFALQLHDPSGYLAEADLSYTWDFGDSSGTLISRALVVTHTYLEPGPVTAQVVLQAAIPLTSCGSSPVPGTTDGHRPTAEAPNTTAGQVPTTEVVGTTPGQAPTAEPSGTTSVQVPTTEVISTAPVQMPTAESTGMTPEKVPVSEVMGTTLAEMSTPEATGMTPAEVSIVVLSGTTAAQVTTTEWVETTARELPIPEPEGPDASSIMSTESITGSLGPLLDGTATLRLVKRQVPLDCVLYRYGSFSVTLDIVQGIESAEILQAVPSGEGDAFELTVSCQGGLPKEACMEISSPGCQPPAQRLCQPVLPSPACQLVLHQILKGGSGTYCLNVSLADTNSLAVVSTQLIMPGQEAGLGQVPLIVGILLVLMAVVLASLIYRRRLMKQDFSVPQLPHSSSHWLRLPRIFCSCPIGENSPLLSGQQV
Description: Apparent affinity by FACS titration of IgGs on G-361 melanoma cell line. Particulars: G-361, PE-labelled detection antibody. Here is the method:
(§1) Purified IgGs were titrated on a variety of PMEL17 expressing and PMEL17 non expressing cell lines (for control) to determine EC50 values. Cells were harvested using Accutase, adjusted to ˜4×10^6 cells/ml into FACS buffer (PBS, 3% FCS and 0.02% Na-Azide) and kept on ice to avoid internalization. 15 μl of cell suspension/well were transferred into 384 well V-bottom plates (Greiner, Cat #781280) and incubated with 15 μl of IgGs at different concentrations (most commonly from 200 to 3.5×10−3 nM) for 1 hour at 4° C., gently shaking. Following incubation, cells were washed three times with FACS buffer. After each washing step, cells were centrifuged (250×g, 5 min, 4° C.) and carefully resuspended. […] After 3 washing steps, cells were resuspended in 30 μl of FACS buffer and samples were measured using the IntelliCyt HTFC device. EC50 values were calculated using the Graphpad Prism software. […]
(§2) The cross-specificity of the IgGs was evaluated in does response FACS on G-361 (human melanoma), HKB11-cyno-PMEL17, HKB11-rat PMEL17 and B16-F10 (mouse PMEL17 expressing melanoma) (Table 3). […]
On the technique in general: In flow cytometry, cells or beads pass a laser one at a time.

The next assay relates to UACC-62. The assay is described as follows: FACS titration of IgGs on UACC-62 cells. The note with it: UACC-62, PE-labelled detection antibody. Here is the method:
Purified IgGs were titrated on a variety of PMEL17 expressing and PMEL17 non expressing cell lines (for control) to determine EC50 values. Cells were harvested using Accutase, adjusted to ˜4×10^6 cells/ml into FACS buffer (PBS, 3% FCS and 0.02% Na-Azide) and kept on ice to avoid internalization. 15 μl of cell suspension/well were transferred into 384 well V-bottom plates (Greiner, Cat #781280) and incubated with 15 μl of IgGs at different concentrations (most commonly from 200 to 3.5×10−3 nM) for 1 hour at 4° C., gently shaking. Following incubation, cells were washed three times with FACS buffer. After each washing step, cells were centrifuged (250×g, 5 min, 4° C.) and carefully resuspended. 15 μl of detection antibody conjugated to PE (PE-conjugated goat anti-human IgG, F(ab′)2 fragment specific, 1:150 in FACS buffer; Jackson Immuno Research, #109-116-097) or Alexa Fluor (Alexa Fluor-conjugated goat anti-human IgG, F(ab′)2 fragment specific, 1:150 in FACS buffer; Jackson Immuno Research, #109-606-097) were added and samples were incubated for 45 minutes to 1 hour on ice in the dark, gently shaking. After 3 washing steps, cells were resuspended in 30 μl of FACS buffer and samples were measured using the IntelliCyt HTFC device. EC50 values were calculated using the Graphpad Prism software. […]

Another assay has as its system PMEL17. The assay is described as follows: Cross-reactivity (cross-specificity profile) of anti-PMEL17 IgGs in dose response FACS. Also noted: key: h/c/r/m: human/cyno/rat/mouse; h/c/r: human/cyno/rat; h/c/(m): human/cyno/mouse; h/c: human/cyno. The note with it: h human, c cyno, r rat, m mouse. How it is done:
The cross-specificity of the IgGs was evaluated in does response FACS on G-361 (human melanoma), HKB11-cyno-PMEL17, HKB11-rat PMEL17 and B16-F10 (mouse PMEL17 expressing melanoma) (Table 3). Testing on G-361 was performed using a detection antibody labelled to PE. In contrast, an Alexa-Fluor labelled detection antibody had to be used for testing the candidates on the other cell lines so as to reach detectable signals.
IgGs were classified into several epitope groups according to their cross-specificity profiles.

For another assay, the target named is T2, mouse PMEL17 (Mus musculus, UniProt Q60696).
T2 construct: B16-F10 (mouse PMEL17 expressing melanoma); endogenous in cells; host or cells: B16-F10 (mouse melanoma)
T2 sequence (Q60696 24-626): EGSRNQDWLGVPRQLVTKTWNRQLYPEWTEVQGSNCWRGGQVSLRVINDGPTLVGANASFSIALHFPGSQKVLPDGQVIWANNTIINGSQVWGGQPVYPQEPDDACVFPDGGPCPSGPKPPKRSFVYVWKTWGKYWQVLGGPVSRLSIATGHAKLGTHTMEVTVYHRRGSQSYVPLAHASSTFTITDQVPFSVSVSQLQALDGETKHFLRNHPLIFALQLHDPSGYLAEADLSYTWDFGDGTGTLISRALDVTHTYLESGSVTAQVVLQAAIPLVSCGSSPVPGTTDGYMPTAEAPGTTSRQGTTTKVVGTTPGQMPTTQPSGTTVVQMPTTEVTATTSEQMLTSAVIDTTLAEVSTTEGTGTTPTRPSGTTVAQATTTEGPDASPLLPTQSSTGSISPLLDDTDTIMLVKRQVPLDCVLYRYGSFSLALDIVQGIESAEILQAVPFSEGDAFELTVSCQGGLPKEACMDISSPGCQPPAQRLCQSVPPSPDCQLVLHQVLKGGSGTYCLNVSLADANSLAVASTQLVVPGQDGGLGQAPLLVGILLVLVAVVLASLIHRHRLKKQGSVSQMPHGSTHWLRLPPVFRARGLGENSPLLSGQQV
The assay is described as follows: Apparent affinity by FACS titration of IgGs on B16-F10 melanoma cells. The note with it: Alexa Fluor. Here is the method: as §1, §2

Some results are limits rather than exact numbers.

B1: Y010429: anti-PMEL17 antibody (IgG) (antibody, V domains shown)
VH: [in this place about 100 residues]AYKLSWLDLWGQGTLVTVSS
VL: DIQMTQSPSSLSASVGDRVTITCRASQSISSYLNWYQQKPGKAPKLLIYAASSLQSGVPSRFSGSGSGTDFTLTISSLQPEDFATYYCQQVWYAPVTFGQGTKVEIK
Take B1: the EC50 with human PMEL17 stood at 2.5 nM. In addition, the “UACC-62 (PE)” value in the assay with UACC-62 is listed as “Negative”. The “Cross spe profile (based on C14 detection ab)” value with PMEL17 is reported as “h/c/r”.

B2: Y010415: anti-PMEL17 antibody (IgG) (antibody, V domains shown)
VH: [in this place about 100 residues]SRLIAPWLDYWGQGTLVTVSS
VL: DIQMTQSPSSLSASVGDRVTITCRASQSISSYLNWYQQKPGKAPKLLIYAASSLQSGVPSRFSGSGSGTDFTLTISSLQPEDFATYYCQQVYGSPPTFGQGTKVEIK
On to B2, for which the results for the EC50 in the assay with human PMEL17 and with mouse PMEL17 were 0.3 nM and > 100 nM, respectively. Moreover, the “UACC-62 (PE)” value in the assay on UACC-62 is listed as “Negative”. Besides, the “Cross spe profile (based on C14 detection ab)” value in the assay with PMEL17 is reported as “h/c/r”.
